Some of the results follow.

This note sets out measurements from the supplement of paper PMC11417369.

The experiment has as its system PfHDP1 homeodomain (GST-tagged). Nature of the experiment: gcPBM binding intensity (ln(normalized median fluorescence intensity)); higher = stronger DNA binding. In outline: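 Plasmodium falciparum DNA-binding domains carrying a GST tag were expressed in E. coli and applied for 1 h, at about 25 μg on average, to an Agilent 4 × 180k array. The array held primer-extended double-stranded 36-bp intergenic genomic probes together with negative controls, and binding took place in 1× PBS with 1% milk, 0.2 mg/ml BSA, 0.5% salmon testes DNA and 0.03% Triton X-100. An Alexa488 anti-GST antibody detected bound protein, and the array was scanned at 488 nm. Binding intensity is taken as the highest Masliner-normalised natural-log median intensity across replicate spots of either probe orientation.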
With “ACGGGCGACACATAAGTGCGCAAAAAAAAAAAAATA [GTGCAC_site9688]”, the “gcPBM binding intensity (ln)” value was determined as 7.33.

Take “AAAATACAGAAACACACACACACACCCATATATATA [CACACA_site3559]”: the “gcPBM binding intensity (ln)” value is 6.93.

For “TTTTATAAAACATGTAGTACATGAAAAAAAAAATTT [XGTACX_site1626]”, the “gcPBM binding intensity (ln)” value came out at 6.37.

Take “GTTTTTATCATATCATGTACGTATTTTATTTTTTTT [XGTACX_site8643]”: the “gcPBM binding intensity (ln)” value turned out to be 6.82.

As for “CTTCTGGACAGGAATGCACACATTTTTTTTTCTTTT [CACACA_site1807]”, the “gcPBM binding intensity (ln)” value came out at 9.25.

In the case of “ATCAAAGATAAATTTACACACATATAAATATAAATA [CACACA_site7409]”, the “gcPBM binding intensity (ln)” value amounted to 6.57.

Regarding “ATGAATTTTTCTCTACAAAAGGATATAATAAAAATA [XGTACX_negctrl_site461]”, the “gcPBM binding intensity (ln)” value came to 6.04.

For “TTTTCTAATTAATATTGTACATAAATGTATATATAT [XGTACX_site4749]”, the “gcPBM binding intensity (ln)” value is 6.46.

For the sequence “TAGTGTGCCAAATTAGCACACACATATATACATGAA [CACACA_site8910]”, the “gcPBM binding intensity (ln)” value came to 7.82.

Turning to “ACATCCTATAAATAGAGTACGTAAATTATAATACAC [XGTACX_site5338]”, the “gcPBM binding intensity (ln)” value is 6.69.

Turning to “TATATATATATATATTGTACAAAGATTAATATATAA [XGTACX_site8433]”, the “gcPBM binding intensity (ln)” value was determined as 9.05.

On to “ACTTAATTTTTTTATTGTACATGTAAATGAGGGAAA [XGTACX_site6305]”, for which the “gcPBM binding intensity (ln)” value was 7.08.

In the case of “TATTTTAATAAGAATAAATGAAATGAAATGAAATAT [CACACA_negctrl_site823]”, the “gcPBM binding intensity (ln)” value turned out to be 6.62.

Turning to “CATTTTATTCTATATGCATGTTAAAAAATGTGTTGA [TGCATGCA_site128]”, the “gcPBM binding intensity (ln)” value came to 6.49.

For “TAATAATAAAAAATACGTACATATTATTTATATATG [XGTACX_site853]”, the “gcPBM binding intensity (ln)” value amounted to 6.26.

For “ATATATAAGAACATATATATTGGAAATATTGAATTT [XGTACX_negctrl_site121]”, the “gcPBM binding intensity (ln)” value was determined as 6.

With “AATAAAAATATTATATGTACATATTTTAATATATAT [XGTACX_site1259]”, the “gcPBM binding intensity (ln)” value came to 6.44.

For “TTATGGTATAAAAAAATACACACTTATATATATTCT [CACACA_site488]”, the “gcPBM binding intensity (ln)” value was 6.22.

Regarding “TTTTATTTTTTCTATACATGCATGTCCAATTTTCTT [TGCATGCA_site304]”, the “gcPBM binding intensity (ln)” value stood at 7.35.

As for “GTTTTTTTATAAAATTTTTATATAATTCTTTTATAA [CACACA_negctrl_site1605]”, the “gcPBM binding intensity (ln)” value amounted to 6.51.

In the case of “AAAAAAAAAAAAAACACACATACACGCCCACCCATA [CACACA_site3391]”, the “gcPBM binding intensity (ln)” value worked out at 7.17.

In the case of “TAATTATAATAATAACGTACATATATAAAATGGTGA [XGTACX_site8434]”, the “gcPBM binding intensity (ln)” value came to 6.69.

For “TTAAAATATGTAGCTACACACACATAAACAAAATAA [CACACA_site8244]”, the “gcPBM binding intensity (ln)” value is 6.87.

Take TATATATATATATAGGTGCTATAATTTATATACACA: the “gcPBM binding intensity (ln)” value was 9.23.

Consider “TGTAGTCTGGAGAAAAGTACACAGTATCTGGTAGCT [XGTACX_site2012]”, for which the “gcPBM binding intensity (ln)” value is 5.95.
